# In all, about 33,000 sequences were measured (“E-score (-0.5 to 0.5)”: median about -0.021, highest 2% from about 0.32 on). This is one part of the list.
# Molecular target: T1, Zap1 (UniProt P47043)
# T1 sequence: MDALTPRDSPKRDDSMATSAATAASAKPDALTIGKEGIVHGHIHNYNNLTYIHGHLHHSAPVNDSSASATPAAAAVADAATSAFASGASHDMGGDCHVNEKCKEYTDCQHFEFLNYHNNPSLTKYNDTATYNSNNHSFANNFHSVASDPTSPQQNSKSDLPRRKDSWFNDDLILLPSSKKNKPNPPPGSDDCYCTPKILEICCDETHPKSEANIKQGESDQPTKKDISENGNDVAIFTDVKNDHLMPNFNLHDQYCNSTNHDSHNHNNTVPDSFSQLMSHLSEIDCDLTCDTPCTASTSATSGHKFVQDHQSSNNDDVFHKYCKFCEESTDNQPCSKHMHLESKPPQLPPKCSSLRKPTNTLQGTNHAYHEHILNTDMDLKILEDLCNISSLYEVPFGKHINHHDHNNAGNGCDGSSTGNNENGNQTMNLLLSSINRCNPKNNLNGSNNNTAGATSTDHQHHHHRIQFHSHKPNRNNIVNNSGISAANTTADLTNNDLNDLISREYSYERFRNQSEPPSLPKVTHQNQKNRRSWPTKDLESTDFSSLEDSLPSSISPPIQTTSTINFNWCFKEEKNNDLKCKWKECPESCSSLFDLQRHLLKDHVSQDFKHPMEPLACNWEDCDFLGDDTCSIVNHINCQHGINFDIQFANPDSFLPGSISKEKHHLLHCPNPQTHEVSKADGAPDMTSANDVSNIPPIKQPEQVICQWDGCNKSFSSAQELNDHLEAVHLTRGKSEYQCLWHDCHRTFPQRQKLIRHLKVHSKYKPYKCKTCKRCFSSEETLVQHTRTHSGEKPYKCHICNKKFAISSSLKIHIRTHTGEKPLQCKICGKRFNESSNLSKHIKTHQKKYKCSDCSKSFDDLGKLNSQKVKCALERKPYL
# Assay: PBM E-score (8-mer binding enrichment) (E-score (-0.5 to 0.5)); higher = stronger / more preferred TF binding; most listed sequences are background and not binding sites
# Conditions: protein concentration: 200 nM; construct: GST-full length
# In short: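 Each ungapped eight-base word and its reverse complement, pooled, received an E-score from the Universal PBM Analysis Suite. Underlying scans, normalised with masliner, recorded fluorescent anti-GST bound to GST-tagged yeast transcription factors. These were applied at about 100-200 nM to universal all-10-mer Agilent arrays double-stranded by primer extension.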
row,Sequence,PBM E-score
1,AGCCTCCG,-0.195
2,GACCCATC,0.0889
3,GAAACACA,0.105
4,CAGCGACA,-0.0507
5,CGCGGAAA,-0.0175
6,CGCAGAAC,0.0417
7,CTGCTGCA,-0.135
8,CATTTCGG,-0.0293
9,ACGGATAA,-0.0719
10,CCACTTCC,0.13
11,ATCAAGAC,0.00604
12,AGTTTGAC,0.0941
13,AGTCCTGG,-0.201
14,AACTTTGA,0.0223
15,AGGAAAGA,-0.0817
16,ACCCGTCG,0.085
17,AGCACTCG,-0.332
18,CGCATCTC,-0.135
19,CAAAGATG,-0.129
20,TCCTCGCA,-0.194
21,CCATCCTC,-0.232
22,AATAGAGG,0.0909

row,Sequence,PBM E-score
1,CCGCCGAG,-0.0804
2,ATCTTACG,-0.117
3,AAGTTTGG,0.0933
4,CGACAACG,-0.187
5,AACTGCGG,-0.0727
6,ATTAACGA,0.239
7,GACAGACA,0.219
8,AACATGTC,0.0904
9,CTTTGCCA,-0.0626
10,AGTTTATC,0.145
11,ATTGCGGC,-0.0608
12,CTGGAGGC,0.0587
13,ATTATCTG,0.0467
14,ACCGCAAA,0.205
15,CCCGGGAA,-0.0842
16,AATTCTTA,-0.119
17,ATTCGGGA,-0.177
18,CCATCGTA,-0.0384
19,AGGTTAAC,0.405
20,CCGTAGCA,-0.235
21,CATTGACG,-0.151
22,GAACGAAA,-0.00047

row,Sequence,PBM E-score
1,CCAGTGGG,-0.0925
2,ATAGAGTC,-0.232
3,ACCTTTGC,0.247
4,GGTACTTA,0.202
5,ACACGTCC,-0.257
6,CCGTCCGA,-0.211
7,AAGATCGC,-0.105
8,CCGGGAAG,-0.0734
9,AGAGTATG,-0.137
10,CCAATTTC,-0.0198
11,CGATACAG,-0.0104
12,CAGTAGCC,-0.236
13,AAATCGCT,-0.241
14,ATGGACAG,-0.0773
15,ATATCTCC,-0.149
16,GTGAAGAA,-0.0109
17,GTCGAGAA,-0.0294
18,AGGTGCAA,0.0924
19,GGAAATCA,-0.172
20,CCCCAAAG,0.0964
21,CAACGAAG,-0.103
22,CTACCAAG,0.0784

row,Sequence,PBM E-score
1,AAGGCCAG,-0.0239
2,AGCGTACT,-0.127
3,ATATGTTG,-0.0991
4,AGGGCGGG,0.135
5,AGACCAAT,0.0466
6,TACTTGAA,0.0507
7,GCAGTACA,-0.103
8,GGATTACA,-0.00429
9,CGAGAATA,0.00254
10,ACACACAC,0.117
11,GAAGGGGC,-0.241
12,TGAGAACA,0.0166
13,AGTGATAT,0.0147
14,CATCTTGG,-0.173
15,CATCGGCA,-0.172
16,CGAAGTAC,-0.0344
17,ATCCGCTC,-0.265
18,ATCGCCAT,-0.132
19,AAACGCGA,-0.00668
20,GTCGCGTA,0.0817
21,ACTTATAG,-0.136
22,AAGCGAGT,0.0526

row,Sequence,PBM E-score
1,ATTAAAAG,0.186
2,ATAAAGAC,0.133
3,ACCCCCAC,-0.286
4,TAAGGGGA,0.00031
5,ATAACAAT,0.0875
6,ATCATCGG,-0.0345
7,AGCGTCAA,-0.129
8,GCGCGTTA,0.1
9,AGAGTCAT,-0.0584
10,ATTGACGC,-0.0257
11,ACTTCGAA,0.0192
12,GGGCGCAC,-0.275
13,CTCCCTAC,-0.161
14,CAGTATCC,-0.0554
15,GAACCGAC,-0.0415
16,CGGATAAC,0.211
17,CGTGGTCA,0.195
18,ACTCTGGC,-0.231
19,AATATTAC,0.166
20,ATAAAATG,0.232
21,ATATCGCA,-0.0843

# — the supplement of paper PMC3334620
